Results: the supplement of paper PMC10126150
Values marked as one replicate rest on one cluster of the flow cell; about a third of the high ones do not repeat.

Test system: ATP
Experiment: switch fluorescence ratio, 500 uM ATP over buffer (Cy3 cluster intensity, sum of 5 cycles each) (fold (ratio)); higher = stronger signal-on switching upon ATP binding; sequences stand for … in TCGTCGGCAGCGTCAGATGTGTATAAGAGACAGTTTTTTTTTTTTTTTTTTTTTTTTT…TC
Settings: aptamer strand: ATP DNA aptamer (quencher-CACCTGGGGGAGTATTGCGGAGGAAGG + anchor), 100 nM annealed; ATP concentration: 500 uM; one replicate
In short: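 After annealing to 100 nM quencher-labelled ATP aptamer, Cy3-labelled switching-strand clusters on a modified Illumina MiSeq flow-cell were imaged in selection buffer. A second image followed after 15 min with 500 uM ATP at 22 °C, and five such buffer/ATP cycles were done, each separated by NaOH stripping and re-annealing. The fluorescence ratio, averaged per switch-domain sequence, is summed target-cycle over summed buffer-cycle Cy3 intensity per cluster, with clusters outside 100-1000 RFU excluded.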
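Further: ATP exposure 15 min at 22 °C before imaging.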

Sequence	switch fluorescence ratio
CGTGATCGGG	1.03
GTAACTCTCA	1.03
AGTAGGTCTC	1
TTACGAACGA	0.956
CGAAAGACTT	1.01
ACGATGGGCT	0.973
TCCGGGAT	1.44
TCTTGATTAC	0.991
ACGGGAACCA	1.04
ATAGGTAAAT	0.983
TTTTGGGAAG	1.03
TGGAGGCGGG	1.05
CTTTTCATTT	1.02
ACAGACAAAA	1.09
ACTACAGGG	1.09
GCTAGAACGG	0.94
AACGCACACG	1.43
ACGTGGCTTT	1
ATATCTCATT	1
GCACCCCAGT	1.6
TGTCGACCGA	0.994
ATGGTAGCAG	1.04
TAAAGCCTGT	1.01

Sequence	switch fluorescence ratio
TTCTTATGAG	1.04
CATTATGAGC	1.01
CTAGGCTCGG	0.986
GGGAGGCTCA	0.984
GGTTCAGACG	0.975
TCAGCAATTT	2.46
GAGTTAGAG	1.01
TCCTGTGATT	1.01
CGTCGACAGC	0.997
CTGGTATCTA	1.04
AGTGCTCCCT	1.1
AGCAAGGAAC	1.38
CCGTGTAAGT	0.974
TTATATCACA	1.06
TGGACTGGCG	1.07
ACTAAAGTCT	1.07
AGCTTGGCCG	1.11
ACCCGAAGCC	1.9
TCTTCTGCTC	1
ACGCCGGCCA	1.05
AAACCACGGA	1.64
TTCTTAAGA	1
AGGTGACTTC	1.04

Sequence	switch fluorescence ratio
CAACTCAATA	1.4
CTACGAC	1.33
GGAGTTCACT	0.987
CGACTGGTCA	0.979
ATCTGCAGCT	1.11
GTGCTCGTGG	1.02
TCAGAGAAGT	0.997
TTTGTGCAAG	1.03
GGATAGAATG	1.02
ATTGGATATA	1.12
TGCTTTGGCT	1
TCTGCCTTAA	0.968
TCAGGTCAGA	1.04
GTGGTTTCCT	1.02
AACGGCAATT	1.33
TGGGGATTAT	1.04
GAGTCTTCAA	1.03
GACGAGCTCT	1.05
ACCGGCCGGT	1.01
ATGAGGATCT	1.03
GGTCGGATTT	1.03
ACAGACTGGT	1.02
GATGTTGGTC	1.01

Sequence	switch fluorescence ratio
CCATAGATAA	1.04
CCTACAGTG	1.3
TCGAGGCCAG	1.07
ATACATGTAT	1.02
CACCATAAGT	1.03
GCACTGGTGC	0.998
CCCAGGCGG	1.7
CACAGGCAAA	1.07
CCGGAGGAAT	2.62
GGTAG	0.993
CAGGGTCGCA	1.02
GATGATACTA	1.01
CACCAGAGGC	1.02
GTTGGCATCG	0.992
TTCTAACTCC	2.08
CTTGTAGAGG	1.01
GTTTTTCCGG	0.998
ATGTCTCAG	0.979
AGCGTCATGT	0.998
ACGATCAACT	1.01
CATTGCTGCT	0.98
CGACCGCTCG	1.07
TTTGATTAG	1.02

Sequence	switch fluorescence ratio
TGTGAGCCCC	1
CAGAAAGACG	0.964
TCAAAATATG	1.06
ACTGTAATAA	1.15
GATCGTACGG	1.6
CATTTTATCC	1.03
TTTAACAGAG	1
GAGTCACGCC	1.05
GCAGGGCTTA	0.995
GAGAGCCCGG	1.02
CACAGATCCA	1.05
CAGGCGGGCA	0.996
GAAAAGGAGT	1.01
AAGTTGGTAG	0.968
TTATCGAAAT	0.956
GTAGAGCAAA	1.06
CCAAATGGAC	1.06
TCGGTAGTAG	1.02
CGCGTACTCG	1.89
TAAGCAAATC	2.01
ATAATGCAGT	0.994
ACATTTTGAC	0.966
AATCCGAGGG	0.966

Sequence	switch fluorescence ratio
TAAGCCTGCT	1.03
TCACGGTACC	1.52
TGTGTGCATA	0.975
CGGTCTTAGC	0.98
GGAAGGGAGC	0.999
AGGTATTCCA	0.987
TGCAAAAGAC	1
AGGTAAAAAT	0.997
ACAGCGGCCA	1.03
TACTCGCTTA	1.14
CCTGGTCCAC	0.947
CCCCTGCATT	3.14
TGCCGGAAGC	0.99
TTTGAACCCG	1.02
TATGGTATTT	0.947
ACAGCTGGCA	0.968
TGTGTGTCAA	0.975
TCCTCAACGG	1.15
GTAAGTGGGG	1
CTATGGTGAC	1.06
AGTTCGTTCG	1
TACGTTATCA	1.12
GCCGCTAACT	1.25

Sequence	switch fluorescence ratio
GACAGGAAGT	1.01
TTATCATGTT	1
CATTTTAACA	0.994
ACGGGGGACC	0.994
GTTAGGGTC	1.04
TATCTCTAAG	0.993
TTTTATCCCT	1.04
TACATTCCGG	1.21
AGTGTGTAAC	0.982
TGAAAATCAT	0.982
GAACCATCGT	1.08
GTACCGCTCT	1.02
CTGTTTCCAT	0.988
CAAAACATGC	1
CATTCGTGCG	1.01
GCCGTTCCAT	1.01
TGAATACGAA	0.996
CGCCGGGTAT	1.03
CTATGAGGGC	1.02
